“And” between values parts separate entries of the source, which are not always exact repeats. Equal entries are not always repeated. Screen size: about 280,000 compounds; about 1,100 (0.39%) were called active. This list was built around the results that the source calls inconclusive (neither active nor inactive); the mix of calls is not that of the screen. Calls come from the whole dose curve; as a rule, active = well fitted inhibition curve with a large enough effect; inconclusive = small, poorly fitted or top-dose-only effect, or effect the other way; inactive = flat fitted curve, though single readings scatter. No potency is given beside an inconclusive call; the fits are too rough.
Molecular target: Microtubule-associated protein tau (Homo sapiens) (UniProt P10636)
Test: qHTS for Inhibitors of Tau Fibril Formation, Fluorescence Polarization; note: nearly all actives have a fitted effect of over 55% in size
Settings: K18 P301L tau heparin fibrillization, Alexa594 FP, 6 h; series mostly up to 57.7 µM; activity, negative = inhibition: at the top concentration
In short: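 Recombinant K18 P301L […], labeled with Alexa 594 at 0.24 uM over 15 uM unlabeled; heparin inducer 20 uM final; 37 C, 6 hr; FP endpoint.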
% is set by controls: 0 for no effect and ±100 for the full control effect; potency is the fitted concentration of half-maximal effect; tags give direction and shape of the fitted curve.

Chain of UniProt P10636 (P10636 whole entry, looked up): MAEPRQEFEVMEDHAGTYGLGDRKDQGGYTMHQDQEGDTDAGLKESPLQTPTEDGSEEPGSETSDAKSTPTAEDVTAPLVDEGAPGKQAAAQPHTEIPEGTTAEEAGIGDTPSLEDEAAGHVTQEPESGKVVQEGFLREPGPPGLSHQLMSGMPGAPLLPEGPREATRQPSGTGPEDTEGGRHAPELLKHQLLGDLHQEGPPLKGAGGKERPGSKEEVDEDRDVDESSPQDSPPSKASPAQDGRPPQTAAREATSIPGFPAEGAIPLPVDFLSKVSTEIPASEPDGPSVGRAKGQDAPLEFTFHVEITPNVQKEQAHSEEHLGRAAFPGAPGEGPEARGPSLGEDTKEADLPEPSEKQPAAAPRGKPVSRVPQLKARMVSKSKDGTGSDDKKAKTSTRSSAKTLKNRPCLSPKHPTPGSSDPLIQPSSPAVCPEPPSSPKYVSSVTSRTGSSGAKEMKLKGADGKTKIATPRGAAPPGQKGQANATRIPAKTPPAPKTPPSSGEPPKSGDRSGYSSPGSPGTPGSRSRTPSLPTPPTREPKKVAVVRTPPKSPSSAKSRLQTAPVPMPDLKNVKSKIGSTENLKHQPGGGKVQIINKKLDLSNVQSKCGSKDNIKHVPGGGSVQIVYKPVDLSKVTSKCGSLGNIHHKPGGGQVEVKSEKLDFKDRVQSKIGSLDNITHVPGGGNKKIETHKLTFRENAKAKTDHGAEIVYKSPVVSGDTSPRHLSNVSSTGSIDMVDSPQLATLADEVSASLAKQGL

| Structure (SMILES) | Potency | activity, negative = inhibition |
| --- | --- | --- |
| CC1=C(C(=O)Nc2ccccc2)C(c2ccco2)C(C#N)=C(SCC(=O)Nc2cccc(C)c2C)N1 (stereo not drawn) | inconclusive [inhibitor, single point] |  |
| Cc1cccc(CNc2ncnc3ccc(-c4cccc(NS(C)(=O)=O)c4)cc23)c1 | active: 17.8 µM |  |
| COC(=O)CSc1nnc(CNC(=O)c2cccs2)n1-c1cc(OC)ccc1OC |  | inactive: 1.5% |
| N#C/C(=C(/O)CN1CCCC1)c1nc(-c2ccccc2)cs1 |  | inactive: 1.94% |
| NS(=O)(=O)c1ccc(NC(=S)NCc2cccc(Cl)c2)cc1 | inconclusive [inhibitor, single point] |  |
| CN(C)c1nc(NCc2ccccc2)nc(SCC(=O)Nc2ccc(Cl)c(Cl)c2)n1 | inconclusive [inhibitor, single point] |  |
| COc1ccc(Cn2c(C)cc3c(c2=O)C(c2cccs2)C(C#N)=C(N)O3)cc1OC (stereo not drawn) | inconclusive [inhibitor, single point] |  |
| CC(C)C(=O)Nc1ccc(C(=O)N/N=C/c2cc(Br)cc(Br)c2O)cc1 | inconclusive [activator, full curve, poor fit] |  |
| CCN(c1ccc(Cl)cc1)S(=O)(=O)c1nnc(NC(=O)c2ccccc2C)s1 | inconclusive [inhibitor, single point] |  |
| COC(=O)C1=C2SCC(=O)N2C(N)=C(C#N)C1 | inconclusive [inhibitor, partial curve, poor fit] |  |
| COc1ccc2c(c1)c1nnc(SCC(=O)N3CCCCC3C)nc1n2C (stereo not drawn) |  | inactive: -4.94% |
| CC1=Nn2c(nnc2-c2cc(-c3ccccc3)n[nH]2)SC1 |  | inactive: 5.38% |
| CC(=O)Nc1ccc(Nc2nc(C)c([N+](=O)[O-])c(Nc3ccc(NC(C)=O)cc3)n2)cc1 | inconclusive [activator, partial curve, poor fit] |  |
| COc1ccc(OC)c(CNC(=O)CN(c2ccc(C)cc2)S(=O)(=O)N(C)C)c1 |  | inactive: -1.31% |
| CN1CCN(C(=O)c2ccc(C3SCC(=O)N3Cc3ccco3)cc2)CC1 (stereo not drawn) |  | inactive: 2.48% |
| O=C1N(Cc2cccc(Cl)c2)C[C@@H]2C[C@@H](c3cccn3-c3cccnc3)N3CCC[C@@]123 |  | inactive: -5.7% |
| CCOc1ccc(C(=O)CSc2nnc3ccccn23)cc1 |  | inactive: -5.36% |
| COCCNS(=O)(=O)c1ccc(-c2ccc(S(=O)(=O)NCCOC)cc2)cc1 | inconclusive [inhibitor, partial curve] |  |
| CCN(CC)S(=O)(=O)c1ccc(NC(=O)c2ccc(N(C)S(C)(=O)=O)cc2)cc1 | inconclusive [inhibitor, single point] |  |
| C=CCCCCCCCCC(=O)O | inconclusive [inhibitor, single point] |  |
| COc1ccc(CCNC(=O)c2nc(SCc3ccccc3F)ncc2Cl)cc1OC |  | inactive: -5.66% |
| Cc1ccc(C(=O)Oc2ccc(Cl)c3cccnc23)cc1[N+](=O)[O-] | inconclusive [inhibitor, partial curve] |  |
| Cc1ccc(-n2c(=O)c3ccc(C(=O)NCc4ccco4)cc3n(CC(=O)Nc3ccccc3C(F)(F)F)c2=O)cc1 | inconclusive [inhibitor, single point] |  |

| Structure (SMILES) | Potency | activity, negative = inhibition |
| --- | --- | --- |
| CC(=O)c1cc(C(C)=O)c(C)nc1C |  | inactive: -4.77% |
| O=C(NNC(=O)c1cc(OCC(F)(F)F)ccc1OCC(F)(F)F)c1cccc(C(F)(F)F)c1 | inconclusive [inhibitor, single point] |  |
| COc1cccc(/C=N/NC(=O)c2ccc(CN3c4cccc5cccc(c45)S3(=O)=O)cc2)c1 | inconclusive [inhibitor, single point] |  |
| CN(c1ccccc1)S(=O)(=O)c1nnc(NC(=O)COc2ccccc2)s1 | inconclusive [inhibitor, full curve] |  |
| O=C(Nc1cc2c(cc1C(=O)c1cccc(Br)c1)OCCO2)c1ccccc1F | inconclusive [inhibitor, partial curve] |  |
| CC(C)CC(=O)NC(=S)Nc1sc2c(c1C(N)=O)CCC2 | inconclusive [inhibitor, partial curve] |  |
| Cc1nn2c(=O)cc(COC(=O)c3ccc(NC(=O)c4cccc(Br)c4)cc3)nc2s1 | inconclusive [inhibitor, partial curve] |  |
| COc1ccc(C2=CC3=C(Br)C(=O)C(C)(OC(=O)C4CCCC4)C(=O)C3=CO2)cc1 (stereo not drawn) | inconclusive [inhibitor, single point] |  |
| O=C(O)c1ccccc1N/N=C/C1=C(N2CCOCC2)C(=C\c2ccccc2)/CC1 |  | inactive: -8.31% |
| CCOC(=O)c1cnc(SC)nc1Sc1ccccc1Cl |  | inactive: -8.59% |
| CC1=C(C(=O)OCC(Cl)(Cl)Cl)N2C(=O)C(NC(=O)Cc3ccccc3)C2SC1 (stereo not drawn) |  | inactive: 7.44% |
| Cc1ccc(NC(=O)NC(=O)N(C(C)C)S(=O)(=O)c2ccc(C)cc2)cc1 | inconclusive [inhibitor, single point] |  |
| O=C(Nc1cccc(S(=O)(=O)NC2=NCCCCC2)c1)c1cc(-c2ccccc2)nc2ccccc12 | inconclusive [inhibitor, full curve, poor fit] |  |
| COc1c(O)cc2oc3cc(O)c(CC=C(C)C)c(O)c3c(=O)c2c1CC=C(C)C | active: 7.94 µM and active: 2.51 µM and active: 2.82 µM |  |
| O=C(Nc1ccc(Cl)c(Cl)c1)OCCNC(=O)c1cccc(Cl)c1 | inconclusive [inhibitor, partial curve] |  |
| COc1ccc(/C=C/C(=O)NCCSCc2ccco2)cc1 |  | inactive: -8.5% |
| COc1ccc(-c2csc(NC(=O)c3ccccc3NS(=O)(=O)c3ccc(C)cc3)n2)cc1 | inconclusive [activator, full curve, poor fit] |  |
| C=Cc1ccc(Cn2c(=O)cc(C)c3c(C)nn(-c4ccccc4)c32)cc1 |  | inactive: -14.8% |
| COc1ccc2c(c1)C(=O)[C@@H](OC(=O)NS(=O)(=O)c1ccc(F)cc1)[C@H](c1ccc(OC)c(Br)c1)O2 |  | inactive: -5.55% |
| COc1ccc(-c2noc(N3CCC(C(=O)N4CCN(c5ccccc5F)CC4)CC3)n2)cc1 | inconclusive [activator, partial curve, poor fit] |  |
| C(=C\c1nc(-c2cccnc2)no1)/c1ccccc1 |  | inactive: -7.74% |
| CCOCCCNc1nc2ccccc2n2c(CC)nnc12 | inconclusive [inhibitor, single point] |  |
| O=C(N/N=C/c1coc2ccccc2c1=O)c1cn(-c2ccccc2)nc1-c1ccc(F)cc1 | inconclusive [inhibitor, single point] |  |

| Structure (SMILES) | Potency | activity, negative = inhibition |
| --- | --- | --- |
| COc1ccc(NC(=O)Cn2c(=O)n(Cc3ccc4c(c3)OCO4)c(=O)c3ccc(C(=O)NC4CCCCC4)cc32)cc1 | inconclusive [inhibitor, partial curve, poor fit] |  |
| Cc1cc(=O)c2c(O)c(O)ccc2o1 |  | inactive: -8.38% |
| O=C(Nc1ccccc1)N(Cc1cccs1)c1ccc(F)cc1 | inconclusive [inhibitor, single point] |  |
| Cc1ccc(NC(=O)N2CCc3cc(S(=O)(=O)N4CCC(C)CC4)ccc32)cc1F | inconclusive [inhibitor, partial curve] |  |
| CCOC(=O)c1ccc(N2C(=O)c3[nH]nc(-c4ccc(OC)cc4)c3C2c2ccccc2Cl)cc1 (stereo not drawn) | inconclusive [inhibitor, single point] |  |
| COCCn1c(SCC(=O)N(C)C2CCS(=O)(=O)C2)nc2ccccc2c1=O (stereo not drawn) |  | inactive: 0.933% |
| COc1ccccc1NC(=O)C/C(C)=N/NC(=O)COc1c(Br)cc(Br)cc1OC |  | inactive: -2.26% |
| CCC1CN(C(=O)Nc2cc(C)ccc2OC)c2cc(Cl)ccc2O1 (stereo not drawn) |  | inactive: 0.0407% |
| Cc1cc(N=NC(=O)c2ccccc2O)c2ccccc2c1O | inconclusive [activator, single point] |  |
| COc1ccc(/C=C/C(=O)c2cc(O)ccc2O)cc1 | inconclusive [activator, partial curve] |  |
| COc1cccc(OCCn2cccc2/C=C2/C(=N)N3OC(C)=CC3=NC2=O)c1 | inconclusive [inhibitor, partial curve] |  |
| COC(=O)c1ccccc1NC(=O)c1sc(N)nc1C |  | inactive: 4.71% |
| O=C(CSc1nnc(-c2ccccc2Br)o1)Nc1nncs1 | inconclusive [inhibitor, full curve, poor fit] |  |
| O=C1C(Cl)=C(Nc2ccc3cn[nH]c3c2)C(=O)c2ccccc21 | active: 7.94 µM |  |
| COC(=O)c1ccc(NC(=O)CC2Nc3cc(C)c(C)cc3NC2=O)cc1 (stereo not drawn) |  | inactive: 3.08% |
| CCOC(=O)c1c(NC(=O)c2ccc(Br)cc2)sc2c1CCCC2 | inconclusive [inhibitor, single point] |  |
| Cc1ccc2nc(-c3cccc(NC(=O)c4ccc(Br)o4)c3)oc2c1 | inconclusive [inhibitor, partial curve] |  |
| Cc1ccc(CC2CC(=O)N(CCc3ccccc3)C2=O)cc1 (stereo not drawn) |  | inactive: -0.768% |
| O=C(COc1ccc(Br)cc1F)NC1CCN(Cc2ccccc2)CC1 | inconclusive [inhibitor, single point] |  |
| Cn1c(=O)c2c(nc(CN3CCC(C(N)=O)CC3)n2CCc2ccccc2)n(C)c1=O | inconclusive [inhibitor, partial curve] |  |
| O=C1/C(=C/c2ccc(O)cc2)SC(=S)N1CC1CCCO1 (stereo not drawn) | inconclusive [inhibitor, single point] |  |
| Cn1c(SCCOc2ccccc2F)nc2ccccc2c1=O | inconclusive [inhibitor, single point] |  |

From PubChem BioAssay AID1468 (National Center for Advancing Translational Sciences (NCATS), 2008)
